Among all 220,000 compounds or so, about 5,700 (2.6%) were called active. The shares of active, inactive and inconclusive entries below differ from those in the screen. The call rests on the fitted dose curve; in most records, active means well fitted inhibition curve with a large enough effect; inconclusive means small, poorly fitted or top-dose-only effect; inactive means no such curve, though single readings can be large or run the other way. A potency beside an inconclusive call is a rough fit, not a confirmed value.
The compounds below were run against Lysine-specific demethylase 5B (Homo sapiens) (UniProt Q9UGL1) (assay: Primary screen for KDM5B Histone Demethylases FDH-coupled qHTS). Details: FDH-coupled NADH fluorescence (FDH is formaldehyde dehydrogenase); activity change, negative = inhibition: at 57.7 µM (top of the series) unless noted.
UniProt Q9UGL1, sequence (Q9UGL1 whole entry, looked up): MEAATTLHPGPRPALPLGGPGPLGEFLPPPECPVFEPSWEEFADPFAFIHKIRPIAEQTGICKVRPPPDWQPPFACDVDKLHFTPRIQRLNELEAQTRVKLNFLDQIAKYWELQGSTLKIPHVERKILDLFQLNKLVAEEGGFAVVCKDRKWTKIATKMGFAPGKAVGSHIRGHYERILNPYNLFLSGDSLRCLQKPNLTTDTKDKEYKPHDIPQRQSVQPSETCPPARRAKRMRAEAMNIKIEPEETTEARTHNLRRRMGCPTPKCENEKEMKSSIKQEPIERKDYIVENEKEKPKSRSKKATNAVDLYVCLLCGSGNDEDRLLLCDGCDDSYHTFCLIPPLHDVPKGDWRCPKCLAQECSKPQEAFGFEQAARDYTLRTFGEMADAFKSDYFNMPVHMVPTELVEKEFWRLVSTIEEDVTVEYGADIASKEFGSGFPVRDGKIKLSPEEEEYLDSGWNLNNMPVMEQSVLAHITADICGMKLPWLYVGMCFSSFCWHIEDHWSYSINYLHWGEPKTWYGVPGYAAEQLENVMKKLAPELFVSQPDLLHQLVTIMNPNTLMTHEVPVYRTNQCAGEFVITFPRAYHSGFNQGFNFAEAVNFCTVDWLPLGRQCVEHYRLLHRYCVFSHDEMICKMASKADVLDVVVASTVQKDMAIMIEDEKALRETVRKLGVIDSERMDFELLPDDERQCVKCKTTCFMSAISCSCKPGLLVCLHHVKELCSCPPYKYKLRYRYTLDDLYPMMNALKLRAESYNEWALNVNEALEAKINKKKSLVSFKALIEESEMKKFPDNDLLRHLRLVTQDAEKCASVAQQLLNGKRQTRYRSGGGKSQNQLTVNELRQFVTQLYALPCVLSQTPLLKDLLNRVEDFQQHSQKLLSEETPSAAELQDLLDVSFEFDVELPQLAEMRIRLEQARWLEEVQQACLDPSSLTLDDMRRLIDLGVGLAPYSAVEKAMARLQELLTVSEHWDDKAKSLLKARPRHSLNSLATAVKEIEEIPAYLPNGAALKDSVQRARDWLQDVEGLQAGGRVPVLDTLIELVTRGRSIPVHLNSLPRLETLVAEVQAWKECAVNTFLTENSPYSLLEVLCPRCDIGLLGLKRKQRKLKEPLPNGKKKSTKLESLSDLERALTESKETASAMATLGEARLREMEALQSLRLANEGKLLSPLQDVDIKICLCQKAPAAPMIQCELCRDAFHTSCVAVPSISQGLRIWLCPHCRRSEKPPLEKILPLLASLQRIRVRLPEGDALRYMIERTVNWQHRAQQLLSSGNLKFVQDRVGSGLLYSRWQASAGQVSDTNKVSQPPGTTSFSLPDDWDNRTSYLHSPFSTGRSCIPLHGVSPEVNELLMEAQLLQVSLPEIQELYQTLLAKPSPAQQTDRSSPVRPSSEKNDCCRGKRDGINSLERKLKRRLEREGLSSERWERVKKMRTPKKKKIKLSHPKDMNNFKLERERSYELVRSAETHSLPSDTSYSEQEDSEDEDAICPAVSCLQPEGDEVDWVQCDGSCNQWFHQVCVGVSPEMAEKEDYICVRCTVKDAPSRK
How it was run: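 Compound dilutions met 200 nM (final) KDM5BΔAP for 10 min at room temperature before substrate addition. The substrate mix held 12.5 µM H3K4me3 with cofactors 25 µM α-ketoglutarate and 50 µM Fe²⁺. NADH signal gain over 30 min defined activity.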
With `Cc1ccc(CNc2nc(-c3ccco3)nn2C(=O)c2ccccc2[N+](=O)[O-])cc1` the Potency was inconclusive: 8.91 µM [inhibitor, partial curve, poor fit].
With `O=C(CC1CCOCC1)N1CCC(Cc2ccccc2)CC1` the Potency was inconclusive: 25.1 µM [inhibitor, single point].
`S=c1[nH]nc(-c2ccco2)n1/N=C/C(Cl)=C/c1ccccc1` was tested, and the Potency was inconclusive: 14.1 µM [inhibitor, partial curve, poor fit].
For `Cc1cccc(NC(=O)N2CCc3c(c4cc(F)ccc4n3C)C2)c1`, the Potency was active: 31.6 µM.
In the case of `COc1ccc(-n2c(C)c(C)c3c2ncn2nc(-c4cccs4)nc32)cc1`, the “activity change, negative = inhibition” value is reported as inactive: -16.9%.
`O=C(NCCc1noc(-c2ccccc2)n1)c1ccc(Cl)s1` was tested, and the “activity change, negative = inhibition” value was inactive: -14.2%.
In the case of `COCC1CN(C2CCC2)CC12CCN(C(=O)c1ccc(OC)cc1C)CC2` (configuration not stated), the Potency is reported as inconclusive: 28.2 µM [inhibitor, partial curve, poor fit].
For `COc1ccc(-c2cn(C3CCN(C(=O)c4ccc(Cl)cc4)CC3)c(=O)[nH]2)cc1`, the Potency was inconclusive: 63.1 µM [inhibitor, partial curve, poor fit].
With `Cc1ccccc1N1CCN(C(=O)c2ccc(Cn3ccn4nc5c(c4c3=O)CCCC5)cc2)CC1` the Potency was inconclusive: 35.5 µM [inhibitor, single point].
For `COc1ccc(-c2cc(C(=O)N/N=C/c3cccnc3)c3cc(C)cc(C)c3n2)cc1`, the Potency was inconclusive: 25.1 µM [inhibitor, partial curve, poor fit].
`CCOC(=O)c1ccc(N2CCN(C(C)=O)CC2)c(NC(=O)c2ccc(-c3ccccc3)cc2)c1` was tested, and the Potency was inconclusive: 28.2 µM [inhibitor, partial curve, poor fit].
For `COc1ccc(Cn2c(SCc3ccc(C(=O)NC4CCCCC4)cc3)nc3ccncc32)cc1`, the Potency was inconclusive: 25.1 µM [inhibitor, single point].
For `CCc1cccc(C)c1Nc1c(-c2ccc(F)cc2)nc2sccn12`, the Potency was inconclusive: 25.1 µM [inhibitor, partial curve, poor fit].
In the case of `CCN(CC)Cc1cnc2c(C(=O)N3CCCN4CCC[C@H]4C3)cnn2c1`, the Potency is reported as inconclusive: 10 µM [inhibitor, partial curve, poor fit].
With `CCC(=O)N1CCc2c(C(=O)NCc3cccnc3)cccc21` the “activity change, negative = inhibition” value was inactive: -3.84%.
In the case of `N#Cc1nc(-c2ccc(COc3ccc(Cl)cc3)o2)oc1N1CCCCC1`, the Potency is reported as inconclusive: 28.2 µM [inhibitor, partial curve, poor fit].
In the case of `O=C(c1cnccn1)N1CCCC(c2ccccc2)(c2ccccc2)C1`, the “activity change, negative = inhibition” value is reported as inactive: 32.3%.

Source: PubChem BioAssay AID1347165 (National Center for Advancing Translational Sciences (NCATS), 2019)
Further: nearly all actives have a fitted effect of over 70% in size.
Potency means the concentration at half of the fitted maximal effect; tags describe the fitted curve by direction and shape.
Wherever activity change, negative = inhibition is given: 0% is about no effect.
